Consider 58 compounds from PMC4336329 (PLoS ONE, 2015).

SMILES strings stand for the structures. Among all 310,000 compounds or so, about 14,000 (4.5%) showed an effect of 50% or more. Effects have a minus sign here. This is one part of the list.
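Note: peak tail current of the secondary pulse compared with the same well before compound.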

The target in this assay is human ether-à-go-go-related gene (hERG) potassium channel (human, UniProt Q12809). Kind of assay: primary screen, population patch clamp on CHO cells stably expressing hERG.
Chain of human ether-à-go-go-related gene (hERG) potassium channel (Q12809 whole entry, looked up): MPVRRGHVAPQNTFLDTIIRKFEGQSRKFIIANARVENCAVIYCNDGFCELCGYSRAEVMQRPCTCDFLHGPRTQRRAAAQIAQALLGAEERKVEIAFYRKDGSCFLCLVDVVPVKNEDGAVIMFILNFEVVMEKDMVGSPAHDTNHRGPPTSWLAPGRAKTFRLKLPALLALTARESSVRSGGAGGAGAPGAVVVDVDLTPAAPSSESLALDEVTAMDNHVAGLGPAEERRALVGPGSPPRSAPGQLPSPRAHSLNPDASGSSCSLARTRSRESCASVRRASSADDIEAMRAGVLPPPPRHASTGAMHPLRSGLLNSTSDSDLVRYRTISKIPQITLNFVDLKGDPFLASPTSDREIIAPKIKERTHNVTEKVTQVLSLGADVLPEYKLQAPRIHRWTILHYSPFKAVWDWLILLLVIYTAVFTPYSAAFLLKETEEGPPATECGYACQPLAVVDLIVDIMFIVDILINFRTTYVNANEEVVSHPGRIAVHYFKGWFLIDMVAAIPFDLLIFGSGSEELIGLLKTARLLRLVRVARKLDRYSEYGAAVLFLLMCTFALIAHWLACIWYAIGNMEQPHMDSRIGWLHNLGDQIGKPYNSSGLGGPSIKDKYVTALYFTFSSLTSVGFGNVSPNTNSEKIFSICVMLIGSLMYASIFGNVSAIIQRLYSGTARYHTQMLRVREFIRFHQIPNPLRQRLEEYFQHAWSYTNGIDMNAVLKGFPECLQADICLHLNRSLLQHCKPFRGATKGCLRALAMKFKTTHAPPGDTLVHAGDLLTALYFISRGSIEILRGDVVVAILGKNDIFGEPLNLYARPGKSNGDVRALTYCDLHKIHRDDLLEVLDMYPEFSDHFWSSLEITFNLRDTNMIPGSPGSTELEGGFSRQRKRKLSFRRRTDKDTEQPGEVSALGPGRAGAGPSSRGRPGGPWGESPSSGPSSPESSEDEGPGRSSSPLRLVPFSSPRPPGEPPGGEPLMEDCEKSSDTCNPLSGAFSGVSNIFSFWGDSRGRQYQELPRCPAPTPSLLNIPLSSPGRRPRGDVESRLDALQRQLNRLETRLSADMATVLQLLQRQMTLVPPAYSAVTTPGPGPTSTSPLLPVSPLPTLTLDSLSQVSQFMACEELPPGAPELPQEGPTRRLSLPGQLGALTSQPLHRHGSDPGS
`C=CCNc1cnn(CC(C)=O)c(=O)c1Br`: the “hERG current change (%, negative = inhibition) at 10uM” value is -5.81%.

For the compound `O=C(c1cc(COc2ccc3ncccc3c2)on1)N1CCCC1`, the “hERG current change (%, negative = inhibition) at 10uM” value is 10.5%.

As to `COc1ccc(N(CC(=O)Nc2ccc(C)cn2)S(=O)(=O)c2c(C)nn(C)c2C)cc1`, the “hERG current change (%, negative = inhibition) at 10uM” value is given as -17.4%.

As to `CC1C(=O)C(C)C(c2cccs2)NC1c1cccs1` (stereo not shown), the “hERG current change (%, negative = inhibition) at 10uM” value was -4.79%.

Consider `CC(=O)c1ccccc1NS(=O)(=O)c1c(C)nn(-c2ccccc2)c1C`, for which the “hERG current change (%, negative = inhibition) at 10uM” value was 3.03%.

Take `Cc1cc(C)c(C#N)c(N2CCN(c3ccccc3F)CC2)n1`: the “hERG current change (%, negative = inhibition) at 10uM” value was 17.3%.

As to `COc1ccc(CNC(=O)CN(C(=O)c2csnn2)c2cnc3ccccc3c2)cc1`, the “hERG current change (%, negative = inhibition) at 10uM” value is -27%.

Regarding `COC(=O)c1cc(C)sc1NC(=O)C1C2C=CC(CC2)C1C(=O)O` (stereo not shown), the “hERG current change (%, negative = inhibition) at 10uM” value turned out to be 10.5%.

Consider `CN(c1ccc(C(=O)NCC2CCCO2)cc1)S(C)(=O)=O` (stereo not shown), for which the “hERG current change (%, negative = inhibition) at 10uM” value is on record as 9.92%.

Turning to `O=C1NC(=O)/C(=C/c2cc3c(cc2Br)OCO3)S1`, the “hERG current change (%, negative = inhibition) at 10uM” value worked out at 16.5%.

Turning to `Cc1cccc(OCC(=O)Nc2nccs2)c1C`, the “hERG current change (%, negative = inhibition) at 10uM” value amounted to 5.94%.

Consider `COc1ccc(C(=O)Nc2nc(-c3ccc(OC)cc3)c(-c3ccc([N+](=O)[O-])cc3)s2)cc1`, for which the “hERG current change (%, negative = inhibition) at 10uM” value was 23.1%.

Regarding `CCc1nnc(NC(=O)CSc2nc3ccccc3o2)s1`, the “hERG current change (%, negative = inhibition) at 10uM” value turned out to be 2.62%.

For `C=CCn1c(SCC(=O)NC2CCCC2)nc2c([nH]c3ccccc32)c1=O`, the “hERG current change (%, negative = inhibition) at 10uM” value was -40.8%.

Turning to `CCC12CCCN3CCc4c(n(c5ccccc45)C(O)(C(=O)OC)C1)C32` (stereo not shown), the “hERG current change (%, negative = inhibition) at 10uM” value is -28.9%.

Regarding `CN1C(=O)CC(N2CCN(c3ccccc3)CC2)C1=O` (stereo not shown), the “hERG current change (%, negative = inhibition) at 10uM” value is 21.1%.

With `O=C(c1ccc(COc2ccccc2Cl)o1)N1CCCC1`, the “hERG current change (%, negative = inhibition) at 10uM” value is listed as -23.6%.

Turning to `CNC(=S)N/N=C/c1cc(Br)c(OCc2ccncc2)c(OC)c1`, the “hERG current change (%, negative = inhibition) at 10uM” value amounted to 3.01%.

Take `CCN(CC)c1nc(N2CCOCC2)c(C#N)c2c1CN(C)CC2`: the “hERG current change (%, negative = inhibition) at 10uM” value is recorded as -7.2%.

As to `COc1ccc(C(C)(C)C)cc1NC(=O)COC(=O)c1cnc(C)cn1`, the “hERG current change (%, negative = inhibition) at 10uM” value amounted to 1.74%.

Turning to `COc1ccc(S(=O)(=O)N(C)C2(C)CCS(=O)(=O)C2)cc1OC` (stereo not shown), the “hERG current change (%, negative = inhibition) at 10uM” value was found to be 1.33%.

Turning to `COC(=O)C1CCN(C(=O)c2ccc(OC3CCN(Cc4ccccn4)CC3)cc2)CC1`, the “hERG current change (%, negative = inhibition) at 10uM” value is recorded as 15.3%.

As for `Cc1ccccc1NC(=O)Cn1c(=O)n(Cc2ccccc2)c(=O)c2c(C)c(C)sc21`, the “hERG current change (%, negative = inhibition) at 10uM” value is reported as 4.45%.

Regarding `Cn1nnnc1Sc1ncnc2scc(-c3ccc(C#N)cc3)c12`, the “hERG current change (%, negative = inhibition) at 10uM” value is listed as -21.2%.

Take `CC(C)c1ccc(NC(=O)CCN2C(=O)c3ccc([N+](=O)[O-])cc3C2=O)cc1`: the “hERG current change (%, negative = inhibition) at 10uM” value is recorded as -0.849%.

With `Cc1nn(C)c(C(=O)NNC(=S)NCC(C)C)c1Cl`, the “hERG current change (%, negative = inhibition) at 10uM” value came to 14.8%.

As to `Cn1c(N)c(C(=O)COC(=O)c2ccc3c(c2)C(=O)N(c2ccc(Cl)cc2)C3=O)c(=O)n(C)c1=O`, the “hERG current change (%, negative = inhibition) at 10uM” value is -41.5%.

On to `COc1ccc(CCN2CC(C(=O)NCCCn3nc(C)cc3C)CCC2=O)cc1` (stereo not shown), for which the “hERG current change (%, negative = inhibition) at 10uM” value was -23.3%.

Turning to `COC(=O)c1c(O)c2c([nH]c1=O)CCCC2`, the “hERG current change (%, negative = inhibition) at 10uM” value is recorded as 1.25%.

With `OC(CCN1CCC2(CC1)OCCO2)C(F)(F)F` (stereo not shown), the “hERG current change (%, negative = inhibition) at 10uM” value worked out at 2.61%.

In the case of `O=C1S/C(=C/c2ccc(N3CCOCC3)o2)C(=O)N1Cc1ccc(F)cc1`, the “hERG current change (%, negative = inhibition) at 10uM” value is 0.628%.

`COc1cc(C(=O)Nc2cccc(NC(=O)c3cccs3)c2)cc(OC)c1OC`: the “hERG current change (%, negative = inhibition) at 10uM” value is listed as -13.8%.

As for `O=C(CSCc1ccccc1)Nc1nccs1`, the “hERG current change (%, negative = inhibition) at 10uM” value is recorded as -6.44%.

As to `CCn1cc(Br)c(C(=O)Nc2nccs2)n1`, the “hERG current change (%, negative = inhibition) at 10uM” value was determined as 10.2%.

`CCOC(=O)c1cc(-c2ccccc2)sc1NC(=O)CC`: the “hERG current change (%, negative = inhibition) at 10uM” value was 1.19%.

In the case of `CC(C)C(c1nnnn1Cc1ccc(F)cc1)N1CCSCC1` (stereo not shown), the “hERG current change (%, negative = inhibition) at 10uM” value is -20.7%.

As for `Cc1cccc(-c2nc(CS(=O)CC(=O)NC(C)CCc3ccccc3)c(C)o2)c1` (stereo not shown), the “hERG current change (%, negative = inhibition) at 10uM” value is given as -45%.

`Cc1ccc(CCNC(=O)C2CCCN(S(=O)(=O)c3cnc[nH]3)C2)cc1` (stereo not shown): the “hERG current change (%, negative = inhibition) at 10uM” value is recorded as 3.78%.

In the case of `CCOC(=O)CC1C(=O)NCCN1S(=O)(=O)c1ccc(NC(C)=O)cc1` (stereo not shown), the “hERG current change (%, negative = inhibition) at 10uM” value came to 18.8%.

Consider `O=C(NCc1cccnc1)c1ccc(CS(=O)(=O)c2ccc(Br)cc2)o1`, for which the “hERG current change (%, negative = inhibition) at 10uM” value is reported as -17.6%.

For the compound `O=C(Nc1ccccn1)C(=O)Nc1ccccn1`, the “hERG current change (%, negative = inhibition) at 10uM” value is on record as -3.33%.

`c1ccc(-c2csc(Nc3ncccn3)n2)cc1`: the “hERG current change (%, negative = inhibition) at 10uM” value is 19.6%.

Consider `CC1(C)CC2CC(C)(CN2C(=O)CN2C(=O)c3ccccc3C2=O)C1` (stereo not shown), for which the “hERG current change (%, negative = inhibition) at 10uM” value came out at 4.1%.

With `CCCC(=O)Nc1cc(OC)c(OC)cc1C(=O)O`, the “hERG current change (%, negative = inhibition) at 10uM” value was 3.16%.

As for `Oc1c(Cl)cc(Cl)cc1C=Nc1ccc(Br)cc1`, the “hERG current change (%, negative = inhibition) at 10uM” value is reported as 4.99%.

Turning to `CCCC(=O)Nc1ccc2nc(SCC(=O)Nc3nccs3)sc2c1`, the “hERG current change (%, negative = inhibition) at 10uM” value was determined as 18.8%.

Turning to `CCCc1cc(=O)[nH]c(SCC(=O)c2cc(C)n(C3CC3)c2C)n1`, the “hERG current change (%, negative = inhibition) at 10uM” value was -1.13%.

Turning to `CC1CC(=O)Nc2ccccc2N1S(=O)(=O)c1ccccc1` (stereo not shown), the “hERG current change (%, negative = inhibition) at 10uM” value is recorded as -3.01%.

Take `COc1ccc(C(CCN2CCN(c3ccccc3)CC2)c2c(O)cc(OC)cc2OC)cc1` (stereo not shown): the “hERG current change (%, negative = inhibition) at 10uM” value is on record as -30.5%.

For `CCCCOc1ccc(C(=O)N/N=C/c2cn[nH]c2-c2ccc(OC)c(OC)c2)cc1`, the “hERG current change (%, negative = inhibition) at 10uM” value is given as -2.85%.

Turning to `O=C(Nc1nc(-c2ccc(Cl)s2)cs1)c1ccco1`, the “hERG current change (%, negative = inhibition) at 10uM” value is -11.1%.

With `Cc1c(NC(=O)Nc2ccc(F)cc2)c(=O)n(-c2ccccc2)n1C`, the “hERG current change (%, negative = inhibition) at 10uM” value is 17.8%.

For the compound `Cl.O=C(N/N=C1/CN2CCC1CC2)c1cc2ccccc2cc1O`, the “hERG current change (%, negative = inhibition) at 10uM” value is 20%.

For `COc1cccc(CN(C)C(=O)c2ccc(NS(=O)(=O)c3ccc(F)cc3)cc2)c1OC`, the “hERG current change (%, negative = inhibition) at 10uM” value is -9.34%.

Consider `COc1ccc(C(C[N+](=O)[O-])c2c(C)[nH]n(-c3ccccc3)c2=O)cc1` (stereo not shown), for which the “hERG current change (%, negative = inhibition) at 10uM” value was -7.97%.

For `Nc1cc(=O)[nH]c(SCCSc2ccccc2F)n1`, the “hERG current change (%, negative = inhibition) at 10uM” value is 12.3%.

As to `CCOC(=O)c1ccc(NC(=O)c2cc(OC)c(OC)c(OC)c2Br)cc1`, the “hERG current change (%, negative = inhibition) at 10uM” value came to 7.53%.

With `CCCN(CCC)C(=O)c1c(NC(=O)CC)sc2c1CCCCC2`, the “hERG current change (%, negative = inhibition) at 10uM” value is on record as -1.91%.
